Laboratory results published in PubChem BioAssay AID2107 (National Center for Advancing Translational Sciences (NCATS), 2009).
“And” between values parts separate entries of the source, which are not always exact repeats. Equal entries are not always repeated. In all, about 240,000 compounds went through this assay and about 20 (0.008%) were called active. Inconclusive results, whose numbers are uncertain, are shown with a selection of clear calls. Calls follow the shape of the dose curve; as a rule, active = well fitted inhibition curve with a large enough effect; inconclusive = small, poorly fitted or top-dose-only effect, or effect the other way; inactive = flat fitted curve, though single readings scatter. Potencies of inconclusive entries are left out as doubtful fits.
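For activity change, negative = inhibition in this document: 0% = enzyme with vehicle and -100% = no enzyme basal signal.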
Potency is read from the fitted curve at half-maximal effect; tags tell the direction and shape of the fitted curve.

Each compound was assayed against Alpha-galactosidase A (Homo sapiens) (UniProt P06280) (assay: qHTS Assay for Inhibitors and Activators of Human alpha-Galactosidase From Spleen Homogenate). Details: 4MU-alpha-Gal fluorescence, 40 min; activity change, negative = inhibition: at 80 µM (top of the series).
UniProt P06280, sequence (P06280 whole entry, looked up): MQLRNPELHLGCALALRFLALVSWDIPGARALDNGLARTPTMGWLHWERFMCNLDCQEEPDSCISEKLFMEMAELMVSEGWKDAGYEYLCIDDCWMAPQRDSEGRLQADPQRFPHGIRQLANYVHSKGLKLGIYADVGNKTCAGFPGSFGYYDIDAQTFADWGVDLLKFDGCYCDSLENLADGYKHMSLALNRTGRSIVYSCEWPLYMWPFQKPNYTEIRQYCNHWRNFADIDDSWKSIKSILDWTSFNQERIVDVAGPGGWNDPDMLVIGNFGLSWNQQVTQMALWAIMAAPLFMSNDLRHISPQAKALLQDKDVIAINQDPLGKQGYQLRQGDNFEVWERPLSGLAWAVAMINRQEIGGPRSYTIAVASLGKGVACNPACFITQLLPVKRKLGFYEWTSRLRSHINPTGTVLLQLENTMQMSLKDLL
Procedure, shortened: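 Fluorogenic readout (Ex 365/Em 440 nm) of 4-methylumbelliferone released from 1 mM 4-MU-alpha-galactoside by spleen homogenate, 40 min at 37C, pH 5.0. Data normalized to no-enzyme and enzyme controls; Hill-equation AC50 from compound titrations.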
`COc1ccc(C(=O)Nc2sc(C(=O)N(C)C)c(C)c2C#N)cc1[N+](=O)[O-]` was tested, and the Potency was “inactive”.
With `CCCCNc1ccccc1C(=O)OCC(=O)Nc1ccc(S(N)(=O)=O)cc1` the Potency was inconclusive [activator, single point].
With `Cc1cccc2c1-c1sc(C(=O)NCCCN3CCc4ccccc4C3)cc1CO2` the Potency was inconclusive [activator, single point].
With `N#CCCn1c(=O)c(-c2ccc(F)cc2)nc2cnc(N3CCNCC3)nc21` the Potency was inconclusive [activator, partial curve].
In the case of `Cc1ccc(-n2c(=O)c(C#N)cc3c(=O)n4ccccc4nc32)cc1`, the Potency is reported as inconclusive [activator, partial curve].
For `CCCCOc1ccc(C(=O)N/C(=C/C=C/c2ccccc2)C(=O)NCCO)cc1`, the Potency was “inactive”.
With `CC(O)[C@@H](O)[C@H]1CNc2nc(N)[nH]c(=O)c2N1` (some centres undefined) the Potency was inconclusive [activator, single point].
With `CCOC(=O)c1cc2ccc(OC)cc2oc1=O` the Potency was inconclusive [activator, partial curve].
With `Cc1[nH]n(S(=O)(=O)Cc2ccccc2)c(=O)c1N=Nc1ccccc1Cl` the Potency was inconclusive [inhibitor, single point].
For `CCC(c1nnnn1Cc1ccccc1)N(Cc1cc2cc(OC)ccc2[nH]c1=O)CC1CCCO1` (centres undefined), the Potency was inconclusive [inhibitor, single point].
In the case of `CC(=O)OCC1=C(C(=O)O)N2C(=O)C(NC(=O)Cc3cccs3)C2SC1` (centres undefined), the Potency is reported as inconclusive [inhibitor, single point].
In the case of `O=S1(=O)CCN2C=C(Cl)C=C(Cl)C2=N1`, the Potency is reported as inconclusive [activator, partial curve].
For `O=Cc1cn(-c2ccccc2)nc1-c1cc2cc(O)ccc2oc1=O`, the Potency was inconclusive [activator, full curve].
For `CCCCN(C)C(=O)CCC(=O)Nc1ccc2nc(N3CCOCC3)cc(C)c2c1`, the Potency was inconclusive [activator, partial curve].
In the case of `CCn1c(=NC(=O)C2COc3ccccc3O2)sc2c(C)ccc(OC)c21` (centres undefined), the Potency is reported as inconclusive [activator, partial curve].
With `Cc1ccc(OCC(=O)c2ccc(Cl)s2)c([N+](=O)[O-])n1` the Potency was inconclusive [inhibitor, partial curve].
In the case of `COc1cc(NC(=O)CN2CCN(S(=O)(=O)c3ccc(C(C)C)cc3)CC2)cc(OC)c1`, the Potency is reported as “inactive”.
For `Cc1ccccc1Oc1nc2c(C)cccn2c(=O)c1/C=C(\C#N)C(=O)NC1CCS(=O)(=O)C1` (centres undefined), the Potency was inconclusive [activator, partial curve].
For `CN(Cc1nc2ccc(F)cc2[nH]1)Cc1nc(CC2CC2)no1`, the Potency was “inactive”.
`COCCn1cc(C(=O)N2CCN(C)CC2)c2c3ccccc3n(C)c2c1=O` was tested, and the Potency was inconclusive [activator, partial curve].
In the case of `COc1ccc(-c2ccc3c(n2)CCCN3C[C@H](O)CN2CCCc3nc(-c4ccc(Br)cc4)ccc32)cc1`, the activity change, negative = inhibition is reported as inactive: 2.47% [at 17.5 µM] and inactive: 0.0805% [at 17.5 µM].
With `O=C(Cn1ccnc1[N+](=O)[O-])NCCO` the Potency was “inactive”.
In the case of `CC(C)CC(NS(=O)(=O)c1ccc2c(c1)oc(=O)n2C)C(=O)NCc1cccnc1` (centres undefined), the Potency is reported as inconclusive [inhibitor, single point].
With `COC(=O)C1=C(C)N(Cc2ccc(OC)cc2)C(=O)C1` the Potency was “inactive”.
For `O=[N+]([O-])c1ccc(-c2nnc(-c3ccccc3)c(NCCCO)n2)cc1`, the Potency was “inactive”.
With `COc1cccc(C(=O)Nc2ccc(C(=O)O)cc2)c1` the Potency was inconclusive [activator, single point].
For `COc1ccc(NC(=O)CSc2ccc3c4c(cccc24)C(=O)c2ccccc2-3)cc1`, the Potency was “inactive”.
With `CCC(C)n1c(/C=C/c2ccccc2)nc2ccccc21` (centres undefined) the Potency was inconclusive [activator, partial curve].
With `CC[N+]1(C)C2CCC1CC(OC(=O)[C@H]1CCC(C(=O)OC3CC4CCC(C3)[N+]4(C)CC)(c3ccccc3)c3ccccc31)C2` (some centres undefined) the Potency was “inactive”.
With `Cc1ccc(N2C(S)=C(C#N)C(=O)NC23CCCCC3)cc1` the Potency was inconclusive [inhibitor, single point].
For `CN(C(=O)NC(=O)C1=C(N2CCOCC2)/C(=C/c2ccccc2)CC1)S(C)(=O)=O`, the Potency was inconclusive [activator, single point].
For `COc1ccc(C=C2C(=O)c3ccccc3C2=O)cc1O`, the Potency was “inactive”.
`COc1ccccc1[C@H]1C(c2cccc(C)c2)=NN(c2ccccc2)[C@@H]1CO` was tested, and the Potency was inconclusive [activator, partial curve].
For `CCCn1nnnc1NC(=O)CSc1ccc(Cl)cc1`, the Potency was “inactive”.
For `CCN(CCCNC(=O)CN1C(=O)COc2ccccc21)c1ccccc1`, the Potency was inconclusive [inhibitor, single point].
For `COc1ccc(C(C(=O)NC2CCCC2)N(CCN(C)C)C(=O)c2snc(C(N)=O)c2N)cc1` (centres undefined), the Potency was “inactive”.
For `CCCC1OC23CCCCC2C(C#N)(C#N)C1(C#N)C(=N)O3` (centres undefined), the Potency was inconclusive [activator, partial curve].
For `CCNc1ncc2nc(-c3ccccc3)c(=O)n(CCOC)c2n1`, the Potency was inconclusive [activator, partial curve].
In the case of `CCCCOC(=O)c1sc2nc(N3CCOCC3)c3c(c2c1N)CC(C)(C)OC3`, the Potency is reported as inconclusive [activator, single point].
For `Cc1ccc(-c2cc(-c3ccc(F)cc3)nc(N)c2C#N)o1`, the Potency was inconclusive [activator, single point].
With `Cc1nn(-c2ccccc2)c2c1cc1c(=O)n(C)c(=O)nc-1n2-c1ccccc1F` the Potency was inconclusive [activator, partial curve].
With `Cc1c(-c2ccccc2)oc2c(C(=O)N3CCN(c4ccc([N+](=O)[O-])cc4)CC3)cccc2c1=O` the Potency was “inactive”.
In the case of `CCn1c(-c2cc3ccccc3cc2O)n[nH]c1=S`, the Potency is reported as inconclusive [activator, single point].
For `COc1cccc2c(=O)c3c(cnn3C)n(C)c12`, the Potency was inconclusive [activator, partial curve].
`COCC(C)OC(=O)c1c(N)n(CCCN2CCOCC2)c2nc3ccccc3nc12` (centres undefined) was tested, and the Potency was inconclusive [activator, partial curve].
For `CCOC(=O)CCc1c(C)c(C#N)c2[nH]c3ccccc3n2c1=O`, the Potency was inconclusive [activator, partial curve].
`COc1ccc(-c2nc(C)c(C(C)=O)n2O)cc1OC` was tested, and the Potency was inconclusive [inhibitor, single point].
`CC(=O)/C=C\c1cn(-c2ncc(C(F)(F)F)cc2Cl)c2ccccc12` was tested, and the Potency was “inactive”.
For `O=C(c1ccc(S(=O)(=O)c2cccc(Cl)c2)c([N+](=O)[O-])c1)N1CCN(c2ccccn2)CC1`, the Potency was “inactive”.
For `CCCc1n[nH]c(=O)[nH]1`, the Potency was inconclusive [activator, single point].
With `COc1ccc(N(CC(=O)Nc2ccc(C)cn2)S(=O)(=O)c2c(C)noc2C)cc1` the Potency was “inactive”.
For `CC(=O)NC(CCCN1C(=O)c2ccccc2C1=O)c1nnn(C)n1` (centres undefined), the Potency was “inactive”.
In the case of `O=[N+]([O-])c1ccc(-c2nc(C(Cl)Cl)c3ccccc3n2)cc1`, the Potency is reported as “inactive”.
With `CCOC(=O)C1=C(C)NC(C)=C(C(=O)OCC)C1C(=O)OCC(=O)NC(C)C` the Potency was inconclusive [inhibitor, single point].
With `CC1OC23CCCCC2C(C#N)(C(=N)O3)C1(C#N)C#N` (centres undefined) the Potency was inconclusive [activator, single point].
For `COCCn1c(=O)c(-c2cccs2)nc2cnc(OC)nc21`, the Potency was inconclusive [activator, partial curve].
For `CCc1ccc(-c2cc(C(=O)N/N=C/c3c[nH]c4ccccc34)[nH]n2)cc1`, the Potency was “inactive”.
In the case of `O=C(CCc1ccc(S(=O)(=O)NC2CCCCC2)cc1)NCc1cccnc1`, the Potency is reported as “inactive”.
With `N#CC1=C(SCc2ccccc2)NC2=C(C(=O)CCC2)C1c1ccc2c(c1)OCO2` (centres undefined) the Potency was “inactive”.
For `COc1cc2c(C#N)c(N3CCCC3)nc(N)c2c(N)n1`, the Potency was inconclusive [activator, partial curve].
`CCOC(=O)CSc1nnc(CSc2nc3sc4c(c3c(=O)[nH]2)CCCC4)n1-c1ccccc1` was tested, and the Potency was “inactive”.
In the case of `Cc1cc(C)n(-c2nnc(C)c(=O)[nH]2)n1`, the Potency is reported as inconclusive [activator, single point].
With `N#C/C(=C\c1c(N2CCCCC2)nc2ccccn2c1=O)C(=O)NC1CCS(=O)(=O)C1` (centres undefined) the Potency was inconclusive [activator, partial curve].
`OC[C@@H]1[C@@H](c2ccc(F)cc2)C(c2cccc(Cl)c2)=NN1c1ccccc1` was tested, and the Potency was inconclusive [activator, partial curve].
For `CCOC(=O)C(C)n1nc(/C=C/c2ccccc2)ccc1=O` (centres undefined), the Potency was inconclusive [activator, single point].
With `O=C1c2cccc3c(O)ccc(c23)C(=O)N1Cc1ccco1` the Potency was “inactive”.
With `Cc1cccc(C(=O)NC(=S)NNC(=O)Cc2ccccc2)c1` the Potency was “inactive”.
With `Cc1cccc(NC(=O)CN2C(=O)N/C(=C\c3cccn3-c3cccc(C(=O)O)c3)C2=O)c1` the Potency was inconclusive [inhibitor, single point].
For `O=C(NCCN1CCOCC1)c1ccc2c(c1)N(Cc1ccccc1)CCS2`, the Potency was inconclusive [activator, single point].
